# The list shows a part of the results.
# Test system: PfAP2-HC AP2 domain (GST-tagged)
# Experiment: gcPBM binding intensity (ln(normalized median fluorescence intensity)); higher = stronger DNA binding
# Method in brief: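 GST-tagged P. falciparum DNA-binding domains, expressed in E. coli (about 25 μg on average), were applied for 1 h to an Agilent 4 × 180k array of primer-extended double-stranded 36-bp intergenic genomic probes plus negative controls. The binding buffer was 1× PBS with 1% milk, 0.2 mg/ml BSA, 0.5% salmon testes DNA and 0.03% Triton X-100. Bound protein was detected with Alexa488 anti-GST antibody and scanned at 488 nm. Binding intensity is the highest Masliner-normalised natural-log median intensity across replicate spots of either probe orientation.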
row,Sequence,gcPBM binding intensity (ln)
1,TTCATTAATGTGTAATGTACTTGTAATATGGGATTA [XGTACX_site3903],9.48
2,CATTTTTTAATAATAGCACACAGGACATACAAAACA [CACACA_site1245],10
3,TGTTCTCTTCTTTTTTATTTTCCAAAGTAATAAGTT [TGCATGCA_negctrl_site424],9.51
4,TATATATATTTATATGCATGTAATATATTTGTATTG [TGCATGCA_site323],9.71
5,TAAATAAGTATTACTAGTACACACAAGTTGTTAATC [XGTACX_site7074],9.79
6,AATTATTTTATGAAAAGTACACATTGTTTTAATTCT [XGTACX_site4506],9.47
7,CATAAATCAGCCATAACACACATACATAAATACATA [CACACA_site4380],10.2
8,TTAATTATAATTATATGTACGAACTTTTTTTTTTTT [XGTACX_site6586],9.47
9,AGAAAAAAGAGGGATACACACAAACATATATATATA [CACACA_site5269],10.8
10,AAATTGATTATAAATTGTACAAGAACATACAACCTT [XGTACX_site5986],9.72
11,CAAAAGCGATACGGCACACATTTCCTGTTTAAATGA [CACACA_site5519],9.75
12,TTAATTTTTAGAAGAACACACACATATATATTATGA [CACACA_site7969],9.93
13,TTATATATTTTATTATTTATAATCTTTTTTTTATTT [CACACA_negctrl_site112],9.73
14,TCATATAGATTATACACACACATATATAGATATATA [CACACA_site6587],10.5
15,TTATATTTCAATTAAACATGCATTTTTGTGTAGCAC [TGCATGCA_site214],9.45
16,TATTATTTATTATATGCACACATCGAACTATTATTT [CACACA_site2544],10.1
17,TATTCGAAAGAATAGGCATGCAAACATATCTTATTA [TGCATGCA_site147],9.93
18,TTCTATATTATATATGCATGTGTTATTCTTATTTTC [TGCATGCA_site92],10.1
19,AAACATATAAATCACGGTACACATTATTGAAAGTGT [XGTACX_site2966],9.76
20,ATATAATATTAGTGCACACACAAAAATGTACTAAAC [CACACA_site632],10
21,ATAAAGAAACATATATGTACTTATATATATATATAT [XGTACX_site5625],9.69
22,ATATATATTATATGCACACTTATATTTCATTAGATT [CACACA_site2599],9.68
23,ATTGTATCTGTATATGCACACAATATCTGTACTTCT [CACACA_site5445],10

row,Sequence,gcPBM binding intensity (ln)
1,AAATAATTAAAAAAAAGTACACATGTGACTACATAT [XGTACX_site8767],9.8
2,TCATCATATTATATATGTACATATATAATAATTTAT [XGTACX_site1625],9.66
3,TTATAATTTTTTTTTGCATGTGGGTTTTTTTTTGTT [TGCATGCA_site968],9.71
4,TATATATATGTATACACACATACAAATATGTAAAAA [CACACA_site3720],9.72
5,CGAAATCATATGTACACACACATATATATATATATA [CACACA_site2151],9.94
6,TTTCAATACTGAAACTGTACTTGTTTTACTTCTATT [XGTACX_site5924],9.89
7,CATATTATTTAAACATGTACTCACATATAAATATAA [XGTACX_site6096],9.57
8,ATGAGTATACTAAGAACACACAAGTTACTTGGTGTT [CACACA_site4981],9.83
9,TAAAAAAAAAAAATGTGTACATATTATATATATCTT [XGTACX_site2615],9.6
10,TTTTTTATTATTATGTGTACGAATATGTGCATATAA [XGTACX_site1364],9.65
11,TATAACAAGTAATGTTGTACATTATATTATGTAATA [XGTACX_site2769],9.77
12,TTTTTTCTCTATATATGTACATATAAAAAATATATC [XGTACX_site6382],9.56
13,GTTACACAAACAAACACACACACACGCACGCACAAA [CACACA_site7191],11.3
14,CAAAATTAATAAGTCACACACACATCTATAATATAT [CACACA_site6519],10.3
15,TTCTTTATTTTTTCTACACACATTAGATATTCAAAG [CACACA_site7624],9.82
16,TATATATATATATTCACACATAAGATGAATAAAGTG [CACACA_site4225],9.7
17,ACCATAACATGAATTACAGGAATTGAAAATGTTCCA [CACACA_negctrl_site649],9.53
18,GGTTACATTTTATTTTGTACATAAAAATTTTTATTT [XGTACX_site218],9.78
19,GTATTATATATAAAAGTGCATATTTTTTTCCCTTAC,9.66
20,ATTTTATAATTTATATCACACACATATATATATAGT [CACACA_site7885],10.1
21,TGTTTATAAATATAAAAAAATATATATATATATTAT [GTGCAC_negctrl_site247],9.54
22,TGTCCCCCTTTCTATGCACACTTTAAATTATTCAAA [CACACA_site4200],9.91
23,AAAAAAAAAATACATACACACACACCCACCCATATA [CACACA_site9187],10.5

row,Sequence,gcPBM binding intensity (ln)
1,ATTAATCCAAATGAATGTACTTAATAATGTAATTAT [XGTACX_site8946],9.59
2,AATGATATATTATAAACACACAAAGATGGATATATA [CACACA_site7349],9.82
3,TTATATATAAATGAAAGTACAAAACAGGAAAGAATA [XGTACX_site1076],9.87
4,ATATATAATATATGTGGTACGCAAAATATTATATTA [XGTACX_site4969],9.76
5,AATACACGCAAACACACACACACACCCACATATATA [CACACA_site638],10.8
6,TCAATATACCAAAAATGTACAAAAAATAAACAATAT [XGTACX_site8251],9.78
7,TTTATATTATAATATAATAATGATCTTAATTTTTTT [XGTACX_negctrl_site100],9.44
8,GAACATTTCACATGGTGTACTCTCTTTTTCAAATAA [XGTACX_site1632],9.62
9,ATATTTAGAATGTTCCTACACACCAAATTTAAGTGG [CACACA_site2346],9.8
10,TTTATTTTACAAAAAAGTACAAGAAGAAATATCAAT [XGTACX_site7812],9.52
11,TATTAAAAGTAAAAAACACACATGGATAAATACATA [CACACA_site6048],10
12,ATAACATACATAACAACACACAATATTTATCTGTAT [CACACA_site4279],10
13,CTCTATATATTATTATGTACTAAATGTATGTATGTA [XGTACX_site7151],9.7
14,TTCTTCTGTTTTATTACACACCATTTTGTGTCTACA [CACACA_site8643],10.5
15,TAACACACTAAGAAAAGTACTGATTAATATAATTTT [XGTACX_site5536],9.69
16,AAAACACAATTTATTACACACATATATTATATATTA [CACACA_site1420],9.77
17,ATGAATGAATAAAGAAGTACGGAAATATTAACAAAA [XGTACX_site4695],9.71
18,TACGCCTATAACGGCTGTACACCTTACTTTTTTTAA [XGTACX_site6818],9.7
19,TATGATTTTTATATATGTACGTATGGTGTTTTACAA [XGTACX_site6100],9.69
20,AATAAATTTCAAAATTGTACTCATTTCCTTTCCCAA [XGTACX_site5887],9.44
21,TGTGAAATAAAATTTGTACACACATATATATATATA [CACACA_site8093],9.74
22,TTCATTCAAATCCAAGCATGCTTTATTAAAAAATTA [TGCATGCA_site567],9.17
23,ATATATAATTCCCAAGTGCATTTATTTTAATTATTA,9.54

row,Sequence,gcPBM binding intensity (ln)
1,ATATATATATATATATGTACACATATATTTCTTTTC [XGTACX_site3443],9.62
2,ATAAAATTTTATATGGGTACATAATATAATATATAT [XGTACX_site8160],9.65
3,ATTCCTGGACCGTTCATGCACTTGCAGAACGTCCAT,9.48
4,TTTATGAAATGTTGCACACAAAAAACAACATGTTTT [CACACA_site1440],9.77
5,TTTAAAAATTAATTCTGTACACATTTTTATTATATT [XGTACX_site4212],9.78
6,AAATGATATAAATTATAAAATGGATTTTTTCCATTG [CACACA_negctrl_site420],9.43
7,AAAAAAAAAAAAAGTGCACACGATTTAAGGCCTATA [CACACA_site2823],9.99
8,CTTAAAATGATAATATGTACACATAAATAATATATA [XGTACX_site8330],9.7
9,TTTTTTGACATTCCTTTTAATAATTAACGAAAGGCA [GTGCAC_negctrl_site377],9.13
10,TAAGTTTGTCAATCAACACACACCTATTTATTATAT [CACACA_site3919],10.2
11,CACTTTAATTTATGCACACATATGGAACAACAGCCA [CACACA_site994],9.81
12,TATAATCAATGCCAAAGTACATATTAATATATTTAT [XGTACX_site4558],9.59
13,ATTGAAAAATAAAAATGTACACATGTAGCATACCAT [XGTACX_site3275],9.98
14,AATATATCGCATAGTTGTACAGAATTTTTACTTTTA [XGTACX_site8192],9.6
15,TATATAATATTACGTTGTACACTTTAATCTCCCTTC [XGTACX_site5577],9.63
16,ACCATTTGAAAATTCACACACTTTATTTTGTTATAT [CACACA_site5976],10.1
17,ACTAATATGCAATATTGTACATATATATAGAAATAT [XGTACX_site5273],9.65
18,AAATGTATACACATGGTGCGTAATATATTATATATA [GTGCAC_site9877],9.79
19,CTACCAAATCTATAGACACACATATATATATATATT [CACACA_site2486],9.9
20,GAACTAATAATGAAAAGTACACATACACATATATAT [XGTACX_site6789],9.88
